According to PubChem BioAssay (Tox21):
Values joined by “and” are separate entries in the source; they are usually repeats but may differ in a detail not shown here. Equal values may be shown once. Some compounds were tested as several samples or in several runs, with calls that do not always agree. Active and inactive are the calls of the source. Unless noted, calls follow the shape of the dose curve; as a rule, active = well fitted curve in the direction sought with a large enough effect in the repeat runs; inconclusive = weak or mixed curves; inactive = no such curve, though single readings can be large; an effect the other way counts as inactive or inconclusive.

What was measured:
[1] = qHTS assay for small molecule agonists of the p53 signaling pathway (AID 651631; calls by dose curve; also: nearly all actives have a fitted effect of over 15% in size; also: potency is read from the fitted curve at half-maximal effect); settings: HCT-116 p53RE-bla reporter, beta-lactamase FRET ratio, 16 h; activation: at 73.3 µM (top of the series) unless noted
Procedure, shortened: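 Fluorescence intensity from cleaved LiveBLAzer B/G substrate (2 h, room temperature) served as the signal. Beforehand, HCT-116 reporter cells bearing p53 response elements were treated 16 h at 37 °C with DMSO-dissolved compounds.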

[2] = qHTS assay for small molecule disruptors of the mitochondrial membrane potential (AID 720635); settings: HepG2 mitochondrial membrane potential, Mito-MPS dye ratio; ratio activity, negative = MMP loss: at 83.2 µM (top of the series) unless noted; also: potency is read from the fitted curve at half-maximal effect
Procedure, shortened: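 HepG2 cells exposed to compound 1 hr at 37C, then Mito-MPS dye 30 min. Ratio read of aggregate (540/590 nm) versus monomer (490/535 nm) fluorescence.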

[3] = qHTS assay to identify small molecule antagonists of the androgen receptor (AR) signaling pathway - cell viability counter screen (AID 743033; also: % is scaled to controls: 0 for no effect and ±100 for the full control effect; nearly all actives have a fitted effect of over 45% in size); settings: AR-bla HEK293 viability, CellTiter-Glo luminescence, 16 h; activity change, negative = cytotoxicity: at 58.5 µM (top of the series) unless noted
[4] = qHTS assay to identify small molecule antagonists of the estrogen receptor alpha (ER-alpha) signaling pathway - cell viability counter screen (AID 743074; calls by dose curve;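 also: HEK293 cells carrying ER-alpha-UAS-bla reporter stimulated with 17beta-estradiol; nearly all actives have a fitted effect of over 45% in size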; also: potency is read from the fitted curve at half-maximal effect)
[5] = qHTS assay to identify small molecule antagonists of the estrogen receptor alpha (ER-alpha) signaling pathway using the BG1 cell line (AID 743080; calls by dose curve;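 also: BG1 cells stimulated with 17beta-estradiol alongside compound; potency is read from the fitted curve at half-maximal effect; nearly all actives have a fitted effect of over 25% in size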); settings: BG1Luc4E2 ERE-luciferase antagonist mode, luminescence; activity change, negative = inhibition: at 70.3 µM (top of the series) unless noted
Procedure, shortened: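 BG1-Luc-4E2 cells (endogenous full-length ER-alpha, 4xERE luciferase) hormone-starved 5 days in charcoal-stripped FBS, plated 4,000/well for 24 h, then compound plus 17beta-estradiol for 21.5 h at 37 C; ONE-Glo luminescence read.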

[6] = molecular target: Aryl hydrocarbon receptor (Homo sapiens) (UniProt P35869); assay: qHTS assay to identify small molecule that activate the aryl hydrocarbon receptor (AhR) signaling pathway (AID 743085); also: potency is read from the fitted curve at half-maximal effect; nearly all actives have a fitted effect of over 15% in size
UniProt P35869, sequence (P35869 whole entry, looked up): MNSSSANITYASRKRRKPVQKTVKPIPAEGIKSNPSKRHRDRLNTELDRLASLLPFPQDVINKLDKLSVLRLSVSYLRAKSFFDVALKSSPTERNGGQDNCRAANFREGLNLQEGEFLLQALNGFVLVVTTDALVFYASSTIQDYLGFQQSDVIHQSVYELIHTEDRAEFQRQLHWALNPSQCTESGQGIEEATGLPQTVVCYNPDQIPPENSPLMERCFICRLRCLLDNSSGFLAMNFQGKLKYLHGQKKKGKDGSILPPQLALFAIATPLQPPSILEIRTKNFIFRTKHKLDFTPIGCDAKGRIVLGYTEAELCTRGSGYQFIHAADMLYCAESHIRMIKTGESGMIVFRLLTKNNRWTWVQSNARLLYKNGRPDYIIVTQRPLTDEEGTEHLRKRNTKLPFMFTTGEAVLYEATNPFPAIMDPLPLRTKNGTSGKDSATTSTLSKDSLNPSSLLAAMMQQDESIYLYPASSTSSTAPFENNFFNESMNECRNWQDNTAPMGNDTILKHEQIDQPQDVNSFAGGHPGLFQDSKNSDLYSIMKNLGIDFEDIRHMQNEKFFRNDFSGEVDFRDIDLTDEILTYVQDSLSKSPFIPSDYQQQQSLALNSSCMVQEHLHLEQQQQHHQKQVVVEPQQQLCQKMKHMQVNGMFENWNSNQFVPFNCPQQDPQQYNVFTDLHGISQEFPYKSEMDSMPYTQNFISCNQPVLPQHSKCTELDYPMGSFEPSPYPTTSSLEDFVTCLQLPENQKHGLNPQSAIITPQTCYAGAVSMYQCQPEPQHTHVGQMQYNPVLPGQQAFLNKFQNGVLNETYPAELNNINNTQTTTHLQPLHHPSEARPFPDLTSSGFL
Procedure, shortened: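 Reporter assay in engineered HepG2 line HG2L7.5c1, whose plasmid carries twenty dioxin responsive elements upstream of firefly luciferase. Treatment lasted 24 h at 37C; ONE-Glo luminescence gauged induction.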

[7] = qHTS assay to identify small molecule antagonists of the androgen receptor (AR) signaling pathway using the MDA cell line - cell viability counter screen (AID 743041; also: potency is read from the fitted curve at half-maximal effect; nearly all actives have a fitted effect of over 45% in size); settings: MDA-kb2 viability, CellTiter-Fluor, 16 h, cells co-treated with R1881 androgen agonist; viability change, negative = cytotoxic: at 70.3 µM (top of the series)
Procedure, shortened: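 Same-well cytotoxicity was assessed by CellTiter-Fluor in MDA-kb2 AR-luc cells after 16 h of compound treatment under R1881 agonism.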

[8] = test system: thyroid hormone receptor (rat, GH3 cells); assay: qHTS assay to identify small molecule agonists of the thyroid receptor (TR) signaling pathway (AID 743066; calls by dose curve; also: % is scaled to controls: 0 for no effect and ±100 for the full control effect); settings: GH3.TRE-Luc cells, TR agonist luciferase, 24 h; activation: at 83.9 µM (top of the series) unless noted
[9] = molecular target: Estrogen receptor (Homo sapiens) (UniProt P03372); assay: qHTS assay to identify small molecule antagonists of the estrogen receptor alpha (ER-alpha) signaling pathway (AID 743069; active = well fitted curve in the direction sought with a large enough effect in the signal ratio in the repeat runs, not every such curve was filed as active; inconclusive = weak or mixed curves, or effect the other way; inactive = no such curve, though single readings can be large or run the other way; the % refers to the signal ratio; also: potency is read from the fitted curve at half-maximal effect); settings: HEK293 ER-alpha-UAS-bla, beta-lactamase ratio, antagonist mode; activity, negative = inhibition: at 69.4 µM (top of the series) unless noted
UniProt P03372, sequence (P03372 whole entry, looked up): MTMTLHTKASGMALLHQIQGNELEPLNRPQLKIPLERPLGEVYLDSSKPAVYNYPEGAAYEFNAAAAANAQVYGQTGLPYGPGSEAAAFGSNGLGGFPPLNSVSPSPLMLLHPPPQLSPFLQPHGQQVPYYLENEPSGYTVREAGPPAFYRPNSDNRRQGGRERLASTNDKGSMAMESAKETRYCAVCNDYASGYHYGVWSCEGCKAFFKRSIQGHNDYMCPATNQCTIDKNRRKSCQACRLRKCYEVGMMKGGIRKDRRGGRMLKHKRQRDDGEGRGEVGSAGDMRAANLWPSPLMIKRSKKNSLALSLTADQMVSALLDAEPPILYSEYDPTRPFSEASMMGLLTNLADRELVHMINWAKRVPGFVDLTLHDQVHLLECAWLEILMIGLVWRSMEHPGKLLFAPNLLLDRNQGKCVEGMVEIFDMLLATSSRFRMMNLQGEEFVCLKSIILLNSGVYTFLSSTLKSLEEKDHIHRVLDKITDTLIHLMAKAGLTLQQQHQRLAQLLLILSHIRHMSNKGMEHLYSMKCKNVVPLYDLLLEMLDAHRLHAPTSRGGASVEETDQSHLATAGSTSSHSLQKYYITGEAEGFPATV
Procedure, shortened: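 Reporter cells (ER-alpha-bla, HEK293 background) are conditioned overnight in stripped-serum medium (2% charcoal-stripped FBS). Compound and 17beta-estradiol exposure runs 18 hr at 37C, 5% CO2.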

[10] = qHTS assay to identify small molecule antagonists of the estrogen receptor alpha (ER-alpha) signaling pathway using the BG1 cell line - cell viability counter screen (AID 743081); settings: BG1Luc4E2 viability, CellTiter-Fluor, 22 h; activity change, negative = cytotoxicity: at 70.3 µM (top of the series) unless noted;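 also: compound given together with 17beta-estradiol as the ER stimulus; nearly all actives have a fitted effect of over 45% in size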; also: potency is read from the fitted curve at half-maximal effect
Aromatase (Homo sapiens) = Aromatase (Homo sapiens) (UniProt P11511); assay: qHTS assay to identify aromatase inhibitors (AID 743083); also: potency is read from the fitted curve at half-maximal effect; nearly all actives have a fitted effect of over 55% in size
UniProt P11511, sequence (P11511 whole entry, looked up): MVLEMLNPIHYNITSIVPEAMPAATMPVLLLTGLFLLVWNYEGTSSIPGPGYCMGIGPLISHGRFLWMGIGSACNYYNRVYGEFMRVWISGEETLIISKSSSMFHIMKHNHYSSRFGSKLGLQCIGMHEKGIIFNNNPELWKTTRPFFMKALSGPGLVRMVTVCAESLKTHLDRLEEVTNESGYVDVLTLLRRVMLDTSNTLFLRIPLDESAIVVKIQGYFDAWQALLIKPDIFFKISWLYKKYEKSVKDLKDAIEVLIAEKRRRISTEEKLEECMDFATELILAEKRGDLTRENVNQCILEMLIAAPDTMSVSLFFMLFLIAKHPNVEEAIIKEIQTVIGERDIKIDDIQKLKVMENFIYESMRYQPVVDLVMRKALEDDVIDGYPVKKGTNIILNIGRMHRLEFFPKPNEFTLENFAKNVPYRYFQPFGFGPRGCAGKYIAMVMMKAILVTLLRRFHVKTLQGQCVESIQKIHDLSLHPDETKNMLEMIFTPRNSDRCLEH

[11] = qHTS assay to identify aromatase inhibitors - cell viability counter screen (AID 743084); settings: MCF-7 aro ERE viability, CellTiter-Fluor, 24 h; activity change, negative = cytotoxicity: at 70.3 µM (top of the series) unless noted;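 also: cells stimulated with testosterone during compound exposure; potency is read from the fitted curve at half-maximal effect; nearly all actives have a fitted effect of over 55% in size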
[12] = qHTS assay to identify small molecule that activate the aryl hydrocarbon receptor (AhR) signaling pathway - cell viability counter screen (AID 743086); also: nearly all actives have a fitted effect of over 45% in size; also: potency is read from the fitted curve at half-maximal effect
Procedure, shortened: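 HepG2-AhR-luc (HG2L7.5c1) cells, 4000/well, treated 24 h at 37 C with compound; viability measured as CellTiter-Fluor fluorescence after 30 min in the same wells as the luciferase read.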

[13] = molecular target: Peroxisome proliferator-activated receptor gamma (Homo sapiens) (UniProt P37231); assay: qHTS assay to identify small molecule agonists of the peroxisome proliferator-activated receptor gamma (PPARg) signaling pathway (AID 743094; active = well fitted activation curve with a large enough effect in the signal ratio in the repeat runs, not every such curve was filed as active; inconclusive = weak or mixed curves, or effect the other way; inactive = no such curve, though single readings can be large or run the other way; the % refers to the signal ratio; also: potency is read from the fitted curve at half-maximal effect); settings: HEK293H PPARg-UAS-bla, beta-lactamase FRET ratio, 17 h; activation: at 57 µM (top of the series) unless noted
UniProt P37231, sequence (P37231 whole entry, looked up): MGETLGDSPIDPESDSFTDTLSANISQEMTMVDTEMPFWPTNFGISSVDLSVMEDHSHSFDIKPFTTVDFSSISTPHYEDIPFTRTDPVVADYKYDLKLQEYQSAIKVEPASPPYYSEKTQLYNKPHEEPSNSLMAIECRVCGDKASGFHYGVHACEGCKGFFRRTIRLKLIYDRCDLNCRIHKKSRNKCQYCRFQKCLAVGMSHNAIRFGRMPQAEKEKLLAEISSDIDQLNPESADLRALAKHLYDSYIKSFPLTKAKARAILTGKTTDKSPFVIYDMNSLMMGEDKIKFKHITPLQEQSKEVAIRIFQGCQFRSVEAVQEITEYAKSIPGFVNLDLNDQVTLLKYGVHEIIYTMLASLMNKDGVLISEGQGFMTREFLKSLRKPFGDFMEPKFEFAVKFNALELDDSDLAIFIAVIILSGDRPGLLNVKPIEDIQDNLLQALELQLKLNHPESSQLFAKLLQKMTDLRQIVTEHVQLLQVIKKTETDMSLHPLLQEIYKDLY
Procedure, shortened: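 Quantitative HTS agonist mode: stable HEK293H line with UAS-beta-lactamase reporter under PPARg control, 17 h compound exposure at 37C, fluorescence after 1 h FRET substrate loading at room temperature.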

[14] = molecular target: Estrogen receptor (Homo sapiens) (UniProt P03372); assay: qHTS assay to identify small molecule agonists of the estrogen receptor alpha (ER-alpha) signaling pathway (AID 743075; calls by dose curve;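 also: HEK293 GripTite cells with ER-alpha and UAS-driven beta-lactamase reporter; % is scaled to controls: 0 for no effect and ±100 for the full control effect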); settings: HEK293 ER-alpha-UAS-bla, beta-lactamase FRET ratio, 18 h; activation: at 70.1 µM (top of the series)
[15] = molecular target: Glucocorticoid receptor (Homo sapiens) (UniProt P04150); assay: qHTS assay to identify small molecule antagonists of the glucocorticoid receptor (GR) signaling pathway (AID 720692; active = well fitted inhibition curve with a large enough effect in the signal ratio in the repeat runs, not every such curve was filed as active; inconclusive = weak or mixed curves, or effect the other way; inactive = no such curve, though single readings can be large or run the other way; the % refers to the signal ratio; also: % is scaled to controls: 0 for no effect and ±100 for the full control effect); settings: GR-bla HeLa, beta-lactamase FRET ratio, dexamethasone-stimulated, 18 h; activity change, negative = inhibition: at 58.5 µM (top of the series) unless noted
UniProt P04150, sequence (P04150 whole entry, looked up): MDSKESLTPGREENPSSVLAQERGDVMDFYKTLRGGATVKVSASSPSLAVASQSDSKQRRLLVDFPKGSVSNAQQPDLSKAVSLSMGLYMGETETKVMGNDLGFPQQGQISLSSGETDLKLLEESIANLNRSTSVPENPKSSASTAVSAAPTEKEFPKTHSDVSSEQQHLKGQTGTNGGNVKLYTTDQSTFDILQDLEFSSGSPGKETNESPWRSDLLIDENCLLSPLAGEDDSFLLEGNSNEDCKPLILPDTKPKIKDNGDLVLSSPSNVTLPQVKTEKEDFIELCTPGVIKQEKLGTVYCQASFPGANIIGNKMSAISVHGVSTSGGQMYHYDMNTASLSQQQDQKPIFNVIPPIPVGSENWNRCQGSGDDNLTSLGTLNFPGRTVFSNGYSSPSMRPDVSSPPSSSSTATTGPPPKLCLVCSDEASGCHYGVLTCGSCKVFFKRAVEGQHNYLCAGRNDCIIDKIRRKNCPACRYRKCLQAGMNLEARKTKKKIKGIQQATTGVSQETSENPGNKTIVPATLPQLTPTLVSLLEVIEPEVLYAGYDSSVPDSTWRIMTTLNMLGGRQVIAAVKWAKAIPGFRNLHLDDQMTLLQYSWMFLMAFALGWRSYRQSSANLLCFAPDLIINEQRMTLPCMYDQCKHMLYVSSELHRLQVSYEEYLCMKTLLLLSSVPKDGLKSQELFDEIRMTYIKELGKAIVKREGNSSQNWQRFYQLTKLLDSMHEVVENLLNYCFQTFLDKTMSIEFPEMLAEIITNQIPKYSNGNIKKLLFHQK
Procedure, shortened: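 Cells plated, rested 4 h at 37 C/5% CO2; compounds in DMSO pin-transferred; dexamethasone added to 5 nM final; 18 h at 37 C; B/G FRET substrate added, 2 h room temperature; fluorescence measured.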

[16] = molecular target: Androgen receptor (Homo sapiens) (UniProt P10275); assay: qHTS assay to identify small molecule antagonists of the androgen receptor (AR) signaling pathway (AID 743035; active = well fitted inhibition curve with a large enough effect in the signal ratio in the repeat runs, not every such curve was filed as active; inconclusive = weak or mixed curves, or effect the other way; inactive = no such curve, though single readings can be large or run the other way; the % refers to the signal ratio; also: % is scaled to controls: 0 for no effect and ±100 for the full control effect); settings: HEK293 AR-UAS-bla, R1881-stimulated, beta-lactamase FRET, 16 h; activity change, negative = inhibition: at 58.5 µM (top of the series) unless noted
UniProt P10275, sequence (P10275 whole entry, looked up): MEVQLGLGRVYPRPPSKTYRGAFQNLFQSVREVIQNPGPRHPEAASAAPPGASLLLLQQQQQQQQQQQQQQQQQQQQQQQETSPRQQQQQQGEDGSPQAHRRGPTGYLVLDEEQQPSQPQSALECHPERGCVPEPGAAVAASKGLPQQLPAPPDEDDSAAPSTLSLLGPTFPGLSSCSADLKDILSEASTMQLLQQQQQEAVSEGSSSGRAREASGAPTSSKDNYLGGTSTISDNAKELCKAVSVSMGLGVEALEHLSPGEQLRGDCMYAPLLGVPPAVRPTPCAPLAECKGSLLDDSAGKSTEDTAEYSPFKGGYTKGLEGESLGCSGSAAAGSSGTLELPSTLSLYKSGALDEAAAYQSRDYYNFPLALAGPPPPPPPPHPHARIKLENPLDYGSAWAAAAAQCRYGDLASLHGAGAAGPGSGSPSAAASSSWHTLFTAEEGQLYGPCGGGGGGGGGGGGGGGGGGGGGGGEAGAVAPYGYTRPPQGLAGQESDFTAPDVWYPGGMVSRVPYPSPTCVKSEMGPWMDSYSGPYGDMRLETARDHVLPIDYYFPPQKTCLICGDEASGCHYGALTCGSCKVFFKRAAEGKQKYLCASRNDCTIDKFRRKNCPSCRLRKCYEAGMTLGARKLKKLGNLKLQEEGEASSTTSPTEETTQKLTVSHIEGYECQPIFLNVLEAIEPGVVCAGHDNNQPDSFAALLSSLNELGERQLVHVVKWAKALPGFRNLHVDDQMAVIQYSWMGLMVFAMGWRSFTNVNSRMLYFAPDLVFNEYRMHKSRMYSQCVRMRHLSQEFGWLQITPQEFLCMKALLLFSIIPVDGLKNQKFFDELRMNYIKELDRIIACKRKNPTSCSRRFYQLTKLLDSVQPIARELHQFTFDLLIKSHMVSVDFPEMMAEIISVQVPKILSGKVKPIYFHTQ
Procedure, shortened: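 Antagonism is scored as loss of R1881-driven beta-lactamase reporter expression in HEK293 cells carrying the reporter under a UAS element, after 16 h co-treatment at 37C and a 2 h room-temperature FRET substrate read.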

[17] = qHTS assay to identify small molecule antagonists of the thyroid receptor (TR) signaling pathway - cell viability counter screen (AID 743064); settings: GH3.TRE-Luc viability, CellTiter-Fluor, 24 h; activity change, negative = cytotoxic: at 70.3 µM (top of the series) unless noted; also: potency is read from the fitted curve at half-maximal effect; nearly all actives have a fitted effect of over 50% in size
Procedure, shortened: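 Same-well viability check: GH3.TRE-Luc cells stimulated with 1 nM T3 alongside test compound for 23.5 h, followed by CellTiter-Fluor fluorescence.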

[18] = qHTS assay to identify small molecule antagonists of the thyroid receptor (TR) signaling pathway (AID 743065); also: potency is read from the fitted curve at half-maximal effect; nearly all actives have a fitted effect of over 55% in size
Procedure, shortened: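 GH3.TRE-Luc rat pituitary cells (two TREs driving luciferase) were dosed with compound, then stimulated with 1 nM T3 (final) for 23.5 h at 37 C. ONE-Glo luminescence was the read-out, with CellTiter-Fluor fluorescence as the cytotoxicity counter-screen.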

[19] = molecular target: Estrogen receptor (Homo sapiens) (UniProt P03372); assay: qHTS assay to identify small molecule agonists of the estrogen receptor alpha (ER-alpha) signaling pathway using the BG1 cell line (AID 743079); settings: BG1Luc4E2 cells, ERE-luciferase agonist, 22 h; activation: at 70.3 µM (top of the series) unless noted; also: % is scaled to controls: 0 for no effect and ±100 for the full control effect; nearly all actives have a fitted effect of over 20% in size
[20] = qHTS assay for identifying genotoxic compounds that show differential cytotoxicity against isogenic chicken DT40 cell lines with known DNA damage response pathways - wild type cell line (AID 743012); settings: DT40 wild type chicken cells viability, CellTiter-Glo, 40 h; activity change, negative = cytotoxicity: at 68.4 µM (top of the series) unless noted; also: potency is read from the fitted curve at half-maximal effect; nearly all actives have a fitted effect of over 60% in size
Procedure, shortened: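 Cells (DT40 wild type, 300/well) are treated with DMSO-dissolved compounds after a ~0.5 h pre-incubation and kept 40 h at 37 C/5% CO2. Viability is then measured by CellTiter-Glo luminescence following 30 min at room temperature.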

[21] = qHTS assay for identifying genotoxic compounds that show differential cytotoxicity against isogenic chicken DT40 cell lines with known DNA damage response pathways - Rev3 mutant cell line (AID 743014); settings: chicken DT40 Rev3-/- viability, CellTiter-Glo, 40 h; activity, negative = cytotoxicity: at 68.4 µM (top of the series) unless noted; also: % is scaled to controls: 0 for no effect and ±100 for the full control effect; nearly all actives have a fitted effect of over 55% in size
[22] = qHTS assay for identifying genotoxic compounds that show differential cytotoxicity against isogenic chicken DT40 cell lines with known DNA damage response pathways - Rad54/Ku70 mutant cell line (AID 743015); settings: DT40 Rad54/Ku70 mutant viability, CellTiter-Glo, 40 h; activity change, negative = cytotoxicity: at 66.8 µM (top of the series) unless noted; also: potency is read from the fitted curve at half-maximal effect; nearly all actives have a fitted effect of over 60% in size
Tags tell the direction and shape of the fitted curve or compound fluorescence and quenching.

With `COc1ccc2cc([C@H](C)CO)ccc2c1` the Potency [1] was inconclusive: 7.5 µM [activator, single point], the Potency [2] was “inactive” and the Potency [3] was “inactive”. For the same molecule, the Potency [4] was “inactive”, the Potency [5] was inconclusive: 29.8 µM [rising, partial curve, poor fit] and the Potency [6] was inconclusive: 23.7 µM [activator, partial curve].
For `C[C@H]1[C@@H](OC(=O)CCC(=O)O)O[C@@H]2OC3(C)CC[C@H]4[C@H](C)CC[C@@H]1[C@@]24OO3`, the Potency [1] was inconclusive: 15 µM [activator, partial curve, poor fit], the Potency [2] was inconclusive: 2.98 µM [activator, full curve, poor fit] and the Potency [7] was inconclusive: 23.7 µM [cytotoxic]. For the same molecule, the activation [8] was inconclusive: -8.84% [phenotype inactive], the Potency [9] was active: 7.56 µM [inconclusive] and the Potency [4] was “inactive”. The activity change, negative = cytotoxicity [10] was inconclusive: -12.7%, the Potency (Aromatase (Homo sapiens)) was inconclusive: 26.6 µM [inhibitor] and the Potency [11] was inconclusive: 29.8 µM [cytotoxic, single point]. For the same molecule, the Potency [12] was inconclusive: 26.6 µM [falling, partial curve] and the Potency [13] was inconclusive: 30.1 µM [rising, single point].
For `CNC[C@@H]1CC[C@@H](N)[C@@H](O[C@H]2[C@H](O)[C@@H](O[C@H]3OC[C@](C)(O)[C@H](NC)[C@H]3O)[C@H](N)C[C@@H]2N)O1`, the Potency [1] was “inactive”, the Potency [2] was “inactive” and the Potency [4] was inconclusive: 6.74 µM [rising, single point]. The Potency [14] was “inactive”, the Potency [10] was inconclusive: 13.3 µM [cytotoxic, single point] and the Potency [12] was “inactive”.
In the case of `CCN(CC)CCn1c(=O)c(Cc2ccc(OC)cc2)nc2ccccc21`, the Potency [1] is reported as inconclusive: 8.41 µM, the Potency [15] is reported as “inactive” and the Potency [16] is reported as “inactive”. The Potency [17] was active: 26.6 µM, the Potency [18] was inconclusive: 23.7 µM [inhibitor, partial curve] and the Potency [19] was “inactive”.
In the case of `CC[C@H]1OC(=O)C[C@@H](O)[C@H](C)[C@@H](O[C@@H]2O[C@H](C)[C@@H](O[C@H]3C[C@@](C)(O)[C@@H](O)[C@H](C)O3)[C@H](N(C)C)[C@H]2O)[C@@H](CC=O)C[C@@H](C)C(=O)/C=C/C(C)=C/[C@@H]1CO[C@@H]1O[C@H](C)[C@@H](O)[C@@H](OC)[C@H]1OC`, the Potency [1] is reported as “inactive”, the Potency [20] is reported as inconclusive: 33.5 µM [cytotoxic, single point] and the Potency [21] is reported as “inactive”. For the same molecule, the Potency [22] was inconclusive: 26.6 µM [cytotoxic, partial curve] and inconclusive: 33.5 µM [cytotoxic, single point], the Potency [9] was “inactive” and the Potency [5] was active: 16.8 µM. The Potency [13] was inconclusive: 26.8 µM [activator, single point] and inactive.
